The whole screen tested about 310,000 compounds, of which about 2,200 (0.71%) showed an effect of 50% or more. The effect is printed as a negative number. This is one part of the list.
Biological target: human ether-à-go-go-related gene (hERG) potassium channel (human, UniProt Q12809)
Assay: primary screen, population patch clamp on CHO cells stably expressing hERG

Sequence of human ether-à-go-go-related gene (hERG) potassium channel (Q12809 whole entry, looked up): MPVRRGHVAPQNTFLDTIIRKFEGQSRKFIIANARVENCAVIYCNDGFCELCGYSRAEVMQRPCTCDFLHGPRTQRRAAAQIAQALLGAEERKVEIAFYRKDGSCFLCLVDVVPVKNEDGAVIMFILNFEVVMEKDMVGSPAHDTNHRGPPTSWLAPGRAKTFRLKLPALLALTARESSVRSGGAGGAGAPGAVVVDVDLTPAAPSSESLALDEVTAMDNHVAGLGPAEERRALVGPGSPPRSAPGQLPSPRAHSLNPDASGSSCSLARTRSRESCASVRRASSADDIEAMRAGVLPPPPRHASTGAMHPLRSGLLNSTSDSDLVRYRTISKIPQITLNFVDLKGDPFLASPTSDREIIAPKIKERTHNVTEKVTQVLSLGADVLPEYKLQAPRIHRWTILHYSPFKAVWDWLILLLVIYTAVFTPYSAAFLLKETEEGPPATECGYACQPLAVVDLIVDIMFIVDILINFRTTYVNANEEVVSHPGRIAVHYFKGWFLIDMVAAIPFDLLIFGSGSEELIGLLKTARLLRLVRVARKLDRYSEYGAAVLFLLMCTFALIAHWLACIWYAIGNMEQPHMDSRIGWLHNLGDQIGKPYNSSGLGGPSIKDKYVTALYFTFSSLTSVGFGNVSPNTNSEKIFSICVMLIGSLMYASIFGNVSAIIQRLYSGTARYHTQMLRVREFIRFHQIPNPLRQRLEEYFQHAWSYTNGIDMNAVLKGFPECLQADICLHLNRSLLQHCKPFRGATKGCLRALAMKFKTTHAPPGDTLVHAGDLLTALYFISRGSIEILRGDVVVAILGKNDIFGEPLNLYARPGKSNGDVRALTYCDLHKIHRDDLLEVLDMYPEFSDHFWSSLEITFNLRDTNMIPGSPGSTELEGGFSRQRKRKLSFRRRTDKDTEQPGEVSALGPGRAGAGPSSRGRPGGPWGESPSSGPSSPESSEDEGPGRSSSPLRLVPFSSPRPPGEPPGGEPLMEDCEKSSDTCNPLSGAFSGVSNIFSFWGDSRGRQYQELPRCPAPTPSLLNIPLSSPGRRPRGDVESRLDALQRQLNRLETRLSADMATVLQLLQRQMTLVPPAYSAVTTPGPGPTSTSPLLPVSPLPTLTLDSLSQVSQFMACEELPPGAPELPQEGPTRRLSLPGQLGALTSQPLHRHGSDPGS

Point of comparison: `Cc1ccccc1SCCNC(=O)c1ccccc1Br`, “hERG current change (%, negative = inhibition) at 1uM” value 4.03%. Against it:
- O=C(COc1ccccc1)Nc1ccc(S(=O)(=O)Nc2ncccn2)cc1 — higher, 20.6%
- CC(=O)OC1CC[C@@]2(C)C(CCC3C2CC(=O)[C@@]2(C)C3CC3CC(C)=CC(=O)C32)C1 (stereo partly drawn) — higher, 9.73%
- CN(C)C(=O)N1CCCC(C(=O)NCc2ccccc2)C1 (stereo not drawn) — higher, 15.5%
- CC(C)CCN=Cc1c(O)n(-c2ccccc2)c(=O)c2ccccc12 — lower, -5.64%
- O=C(Nc1ccc(Cl)cc1)Nc1nc(-c2ccccc2)cs1 — higher, 10.3%
- O=C1CN(C(=O)c2ccco2)C(c2ccc(F)cc2)c2cc(Cl)ccc2N1 (stereo not drawn) — lower, -3.72%
- O=C(Cn1ccsc1=NC(=O)c1ccco1)c1ccccc1 — lower, -0.525%
- CC1CCN(C(CNS(=O)(=O)c2ccccc2)c2ccccc2)CC1 (stereo not drawn) — lower, 3.61%
- CCN1CCN(C(=O)/C=C/c2ccc(C)cc2)CC1 — higher, 4.54%
- Cc1ccc(NS(=O)(=O)c2ccc(-c3ccc(=O)[nH]n3)o2)cc1 — lower, -16.2%
- CCSc1nnc(NC(=O)Nc2cccc(C)c2)s1 — higher, 12.2%
- CC(C)N(C(=O)CSc1nnc(NC(=O)C2CCC2)s1)C(C)C — lower, 0.774%
- Cc1nn(C)c2nc(-c3cccs3)cc(C(F)(F)F)c12 — higher, 7.38%
- CCC(c1nnc(SCC(=O)NCCc2ccc(Cl)cc2Cl)o1)N(C)C (stereo not drawn) — higher, 4.09%
- C/C(=N/OC(=O)C1CC12CCC2)c1ccc(Br)cc1 (stereo not drawn) — higher, 8.04%
- O=S(=O)(Nc1ccc2cn[nH]c2c1)c1ccc(Cl)cc1 — higher, 26.7%
- C/C(=N\NC(=O)c1ccc(Cn2cc(Br)cn2)o1)c1cccc(NC(=O)C(C)(C)C)c1 — lower, -15.4%
- CCCC[N+]12CCC(CC1)C(C(O)(c1ccccc1)c1ccccc1)C2.[Br-] (stereo not drawn) — higher, 8.29%
- CCOC(=O)c1ccccc1NC(=O)CN1C(=O)c2ccccc2S1(=O)=O — lower, 0.76%
- COc1ccc(C(=O)N/N=C(\C)Cn2nc([N+](=O)[O-])cc2C)cc1 — lower, -6.71%
- COc1cc(CNCCc2ccc(S(N)(=O)=O)cc2)ccc1OCc1ccc(Cl)cc1.Cl — lower, -1.77%
- COC(=O)c1c(NC(C)=O)sc2c1CCCCC2 — higher, 12.7%
- C=CCNc1nc(C2(C)CC3(CC(C)(C)OC3=O)C(=O)O2)cs1 (stereo not drawn) — higher, 6.75%
- O=C(NC(=S)N1CCCC1)c1ccccc1 — higher, 17.5%
- COC(=O)c1c(-c2ccccc2)noc1C — higher, 10.9%
- Nc1nc(CN2CCN(Cc3ccccc3)CC2)nc(N2CCCc3ccccc32)n1 — lower, -28.2%
- O=C(COC(=O)c1ccccc1[N+](=O)[O-])NCCCc1ccccc1 — higher, 5.5%
- CCCOc1ccccc1C1CC(=O)NC2=C1C(=O)CCC2 (stereo not drawn) — higher, 11.7%
- COc1ccc(-c2nnc(-c3cc4c(ccc5ccccc54)oc3=O)o2)cc1 — lower, 3.15%
- Cl.c1ccc(Nc2nc(N3CCOCC3)c3ccccc3n2)cc1 — lower, 3.46%
- CCN1CCN(C(=O)c2cc(S(=O)(=O)N3CCCCC3)ccc2Cl)CC1 — higher, 5.86%
- O=C(CNS(=O)(=O)c1ccc(Br)cc1)NCc1cccnc1 — higher, 10.1%
- O=C(NCCN1CCOCC1)c1cccc(S(=O)(=O)NCc2ccccc2)c1 — lower, -3.78%
- O=C(Nc1nc2ccccc2n1CCN1CCCCC1)C1CCCCC1 — lower, -29.6%
- COc1cc2c(cc1OC)C(C(=O)Nc1ccc3c(c1)OCCO3)C1c3ccccc3CCN1C2=O (stereo not drawn) — lower, 0.454%
- COc1ccccc1OCC(O)Cn1c(=N)n(CCN2CCCCC2)c2ccccc21.Cl (stereo not drawn) — lower, -27.9%
- OC(Cn1c2ccccc2c2ccccc21)C[n+]1cccc2ccccc21.[O-][Cl+3]([O-])([O-])[O-] (stereo not drawn) — lower, 1.17%
- CSCCC(C(=O)OCC(=O)c1ccc(C)c(C)c1)N1C(=O)c2cc(Cl)c(Cl)cc2C1=O (stereo not drawn) — lower, 3.6%
- COc1ccc(C(=O)Nc2cccc(C)c2)cc1S(=O)(=O)N1CCOCC1 — higher, 9.11%
- COc1cccc(C2CC(C(F)(F)F)n3nc(C(=O)NCc4cccnc4)cc3N2)c1 (stereo not drawn) — higher, 11.8%
- COc1ccc(OC)c(NC(=O)c2cnn(-c3ccccc3)c2C)c1 — higher, 7.05%
- Cn1nc(C(=O)Nc2ccc3c(c2)OCO3)c2ccccc2c1=O — higher, 6.82%
- Cc1ccc(C2=Nc3ccccc3N=C(c3ccco3)C2)c(O)c1 — higher, 9.98%
- Nc1cccnc1S(=O)(=O)c1ccccc1 — higher, 8.89%
- COc1ccc(CCNC(=O)c2c(C)nc3ccccn23)cc1OC — lower, -9.75%
- COc1ccc(NS(=O)(=O)c2cc3c(cc2C)N(C)CCO3)c(OC)c1 — higher, 15.5%
- Cc1nn(C)c(C)c1NC(=O)CSc1nc(-c2ccccc2Cl)nc2c1cnn2-c1ccccc1 — lower, 1.59%
- O=C(CCC(=O)N1C[C@H]2C[C@@H](C1)c1cccc(=O)n1C2)NCc1ccc(F)cc1 — higher, 8.93%
- CCOC(=O)N1CCN(C(=O)CN(Cc2ccccc2)S(C)(=O)=O)CC1 — higher, 10%
- Cc1ccc(C2C(N)C(=O)N2c2ccc(C)cc2)cc1 (stereo not drawn) — higher, 4.62%
- COc1ccccc1NC(=O)Cn1cnc2c(cnn2-c2ccc(C)c(C)c2)c1=O — higher, 9.45%
- CNc1nc(Cl)c(SC)c(NCc2ccc(F)cc2)n1 — higher, 12.1%
- OC1COC(O)C(O)C1O (stereo not drawn) — higher, 6.14%
- Cc1cccc(N2CCN(C(=S)Nc3ccc4nc(N5CCOCC5)cc(C)c4c3)CC2C)c1 (stereo not drawn) — higher, 9.28%
- CCc1nc(Sc2nnnn2-c2ccccc2)c2c3c(sc2n1)CCCC3 — higher, 5.25%
- Cc1cc(C)nc(N2CCCC(C(=O)NCc3ccccc3)C2)n1 (stereo not drawn) — higher, 10.6%
- CCc1ccc[n+](-c2[nH]c(=O)sc2/C=N/N=C(\[O-])CCn2c3ccccc3c3ccccc32)c1 — higher, 12.9%
- C=CCn1c(COc2cccc(C)c2)nnc1SCC(=O)NC(=O)NCc1ccco1 — higher, 14.1%
- O=C(O)C1CCCCC1C(=O)Nc1ccccc1Cl (stereo not drawn) — higher, 4.86%
- CC1CCCC(NC(=O)CN2C(=O)c3cccnc3Oc3ccc(Cl)cc32)C1C (stereo not drawn) — higher, 6.45%
- COc1ccccc1CCNC(=O)C(=O)NCC1OCCN1S(=O)(=O)c1cc(F)ccc1F (stereo not drawn) — higher, 8.74%
- CCOC(=O)C1=C(C)N(CCCC(=O)O)C(=O)NC1c1ccc([N+](=O)[O-])cc1 (stereo not drawn) — higher, 15.8%
- Cc1nc(C(=O)NC2CCOCC2)sc1C1(C)CC(c2cccc([N+](=O)[O-])c2)=NO1 (stereo not drawn) — higher, 10.1%
- NS(=O)(=O)c1ccc(NC(=O)/C=C/c2cccc(Cl)c2)cc1 — higher, 10.6%
- O=S(=O)(c1ccccc1)N1CCC(N2CCCCCC2)CC1 — higher, 13.6%
- Cc1cc(Nc2nnnn2-c2ccccc2)n(-c2ccccc2)n1 — lower, -13.8%
- COc1ccccc1NC(=O)/C(C#N)=C/C=C/c1ccco1 — lower, -12%
- CCOc1ccc(OCCCCNCCN)cc1.O=C(O)C(=O)O — higher, 14.5%
- CCCCn1c(SCn2nnc3ccccc3c2=O)nc2cc(S(N)(=O)=O)ccc21 — higher, 9.75%
- Cc1cccc(N2CCN(C(=O)C3COc4ccccc4O3)CC2)c1C (stereo not drawn) — lower, 0.785%
- Fc1ccc(CNCc2ccccc2C(F)(F)F)cc1 — higher, 10.6%
- COc1cccc(C2C(C(=O)c3cccs3)=C(O)C(=O)N2c2cc(C)on2)c1 (stereo not drawn) — higher, 13.2%
- CC(C)C[C@H](NC(=O)c1nc[nH]c1C(=O)N1CCN(C(=O)OC(C)(C)C)CC1)C(=O)OC(C)(C)C — lower, 1.12%
- CC(=O)Nc1ccc(NC(=O)c2c(-c3ccccc3Cl)noc2C)cc1 — higher, 8.49%
- COc1ccc(/C=N/NC(=O)c2ccc(Br)cc2)c(OC)c1 — higher, 10.1%
- Nn1c(SCC(=O)Nc2nccs2)nncc1=O — higher, 16.3%
- COc1ccccc1N1CCN(C(=S)Nc2cccc(C)c2)CC1 — higher, 11%
- CCCCCCC(=O)Nc1nc(C)c(-c2csc(Nc3cc(Cl)ccc3OC)n2)s1 — higher, 15.4%
- CCOC(=O)C1=C(c2ccccc2)N(C)C(=O)NC1c1ccc(O)c(OC)c1 (stereo not drawn) — higher, 14.3%
- O=C(CCc1ccccc1)Nc1cc2c(cc1Cl)OCCO2 — lower, -2.24%
- Cc1ccc2c(c1C)NC(=O)CC(c1ccccc1O)=N2 — lower, 1.1%
- CCc1ccc(NC(=O)COC(=O)c2ccc(Cl)c(S(=O)(=O)N3CCCCCC3)c2)cc1 — higher, 12%
- COc1ccc(CCC(=O)NC2CCCN(Cc3ccc(Cl)cc3)C2)cc1OC (stereo not drawn) — lower, -20.5%
- COc1cccc(OC)c1C(=O)Nc1ccccc1C(=O)N1CCCCCC1 — lower, -1.21%
- CCOC(=O)c1sc(NC(=O)CSC(=S)N2CCOCC2)nc1C — higher, 10.1%
- O=C(Nc1ccc(S(=O)(=O)Nc2nccs2)cc1)c1cnc(Cl)c(Cl)c1 — lower, -2.91%

Reference: article PMC4336329 (PLoS ONE, 2015)
